Among all 220,000 compounds or so, about 2,300 (1%) were called active. The shares of active, inactive and inconclusive entries below differ from those in the screen. Calls follow the shape of the dose curve; as a rule, active = well fitted inhibition curve with a large enough effect; inconclusive = small, poorly fitted or top-dose-only effect, or effect the other way; inactive = no such curve, though single readings can be large or run the other way. Potencies of inconclusive entries are left out as doubtful fits.
These compounds were tested against Neuropeptide S receptor (Homo sapiens) (UniProt Q6W5P4) (assay: qHTS Assay for Antagonists of the Neuropeptide S Receptor: cAMP Signal Transduction). Conditions: CHO-NPSR cells, cAMP TR-FRET, antagonist mode; activity change, negative = inhibition: at 38.3 µM (top of the series) unless noted.
Excerpt: NIH Chemical Genomics Center [NCGC] NIH Molecular Libraries Probe Production centers Network [MLPCN] MLPCN Grant: X01-DA026210-01 Assay Submitter (PI): Heilig, Markus Alexander NCGC Assay Overview: Neuropeptide S receptor (NPSR), previously known as GPR154, is a recently de-orphanized G protein coupled receptor. Its endogenous ligand is the 20 amino acids peptide Neuropeptide S (NPS). […] NPS and its receptor are found in various tissues. Specifically they are highly expressed in brain areas that have been implicated in modulation of arousal, stress and anxiety. Central administration of NPS in mice produces an unusual profile of activity by inducing wakefulness and arousal, while at the same time suppressing anxiety. Therefore, NPSR may represent a novel drug target for the treatment of sleep and anxiety disorders. To identify NPSR antagonists, we developed a cell-based cAMP assay. NPS can stimulate the production of cAMP in Chinese hamster ovary cells stably expressing NPS receptor. This change in intracellular cAMP level can be detected by a homogeneous LANCE cAMP assay based on the TR-FRET (time resolved fluorescence resonance energy transfer) between a europium-labeled cAMP tracer complex and a cAMP-specific antibody labeled with Alexa Fluor 647. The europium-labeled cAMP tracer complex is formed by the tight interaction between Biotin-cAMP (b-cAMP) and streptavidin labeled with Europium-W8044 chelate (Eu-SA). Light pulse at 320 nm excites the europium of the cAMP tracer and the energy emitted is transferred to the Alexa molecule bound to the cAMP antibody, generating a TR-FRET signal at 665 nm. Residual energy from the europium will produce a light at 620 nm. The native unlabeled cAMP from cell lysates competes with the europium-cAMP tracer for antibody binding and reversely reduces the emission signal of Alexa by interrupting FRET between the two labeled molecules. Both emission signals from the FRET donor (620 nm) and the acceptor (665 nm) can be detected by a plate reader in the TRF mode. Expression of result in fluorescence ratio (665 nm/620 nm) helps to normalize differences due to cell density and reagent dispensing. This assay was successfully optimized to a 1536-well plate format.
NCGC Assay Protocol Summary: A Chinese hamster ovary (CHO) cell line stably expressing the NPS receptor (CHO-NPSR) was obtained from Dr. Heilig lab at NIAAA and maintained in F-12 Kaighn's media (Invitrogen, Carlsbad, CA, 21127) supplemented with 10 % FBS, 100 units/ml penicillin, 100 ug/ml streptomycin and 250 ug/ml geneticin at 37C, 5% CO2 in a humidified atmosphere. Before the assay, aliquots of cells were frozen and stored at -135C. The assay was performed in 1536-well format. Data are reported for both the ratio of the two emission wavelengths, and also for the component 'donor' channel, Em2=620. Data were normalized to the controls for basal activity (DMSO only) and 100% inhibition (No NPS control). IC50 values were determined from concentration-response data modeled with the standard Hill equation. NPS 1536-well assay protocol: (1) Fresh or frozen CHO-NPSR cells were suspended in F-12 Kaighn's media supplemented with 10 % FBS, 100 units/ml penicillin and 100 ug/ml streptomycin. Cells were plated at 4 ul/well (1200 cells) to white, tissue culture treated 1536-well plates, and then cultured at 37C, 5 % CO2 for 16 to 30 hours. (2) Add 23 nl/well of compound in DMSO solution. The final titration for each compound was between 0.6 nM and 46 uM. (3) Add 1 ul of stimulation reagent (1X HBSS buffer, 5 mM HEPES, 0.1% BSA, 500 uM RO-201724 (Sigma-Aldrich, B8279), 1.5% Alexa 647-labeled anti-cAMP antibody (from Perkin Elmer), 100 nM NPS) (4) Incubation at 37C, 5 % CO2 for 60 min. (5) Add 1 ul/well detection reagent. Detection reagent was prepared by adding biotin labeled cAMP (4%), streptavidin labeled with Europium-W8044 chelate (1.33%) and TritonX-100 (1%) to detection buffer. […]
% is scaled to controls: 0 for no effect and ±100 for the full control effect; potency is read from the fitted curve at half-maximal effect; tags tell the direction and shape of the fitted curve.
Also: nearly all actives have a fitted effect of over 50% in size.

UniProt Q6W5P4, sequence (Q6W5P4 whole entry, looked up): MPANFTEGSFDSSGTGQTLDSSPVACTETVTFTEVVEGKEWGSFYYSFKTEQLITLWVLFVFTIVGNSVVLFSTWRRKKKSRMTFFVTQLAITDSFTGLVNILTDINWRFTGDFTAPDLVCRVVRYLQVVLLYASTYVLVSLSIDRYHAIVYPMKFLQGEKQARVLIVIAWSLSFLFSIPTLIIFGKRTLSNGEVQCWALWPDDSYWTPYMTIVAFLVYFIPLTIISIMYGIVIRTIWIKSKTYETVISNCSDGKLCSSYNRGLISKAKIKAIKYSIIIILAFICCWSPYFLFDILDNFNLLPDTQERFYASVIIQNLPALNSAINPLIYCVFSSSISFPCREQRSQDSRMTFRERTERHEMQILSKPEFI

Row | SMILES | Potency | activity change, negative = inhibition
1 | CCc1nc(SCC(=O)Nc2sc(C)c(C)c2C(=O)OC)c2ccccc2n1 | inconclusive [inhibitor, single point] | –
2 | CN(C)CCN(C)Cc1ccc2c(c1)Cc1ccccc1-2 | inconclusive [inhibitor, single point] | –
3 | COc1ccccc1-c1ccc(SCc2ccc([N+](=O)[O-])cc2)nn1 | inconclusive [inhibitor, single point] | –
4 | O=C(c1oc2ccccc2c1CSCc1ccccc1)N1CCN(c2ncccn2)CC1 | inconclusive [inhibitor, single point] | –
5 | CCOC(=O)c1cc(Br)c(=O)n2ccccc12 | inconclusive [inhibitor, partial curve, poor fit] | –
6 | COc1cc2c(C(=O)N3CCN(C)CC3)c(C)n(-c3ccccc3)c2cc1Br | – | inactive: -6.01% [at 46.1 µM]
7 | CC(C)(C)OC(=O)[C@H](Cc1ccccc1)NC(=O)c1nc[nH]c1C(=O)N[C@@H](Cc1ccccc1)C(=O)OC(C)(C)C | – | inactive: -44.6%
8 | Cc1cc(C)cc(Oc2ncnc3c2ncn3Cc2c(Cl)cccc2Cl)c1 | inconclusive [inhibitor, single point] | –
9 | COc1ccc(-n2c(C)nc3c(cnn3-c3ccc(C)c(C)c3)c2=O)cc1 | inconclusive [inhibitor, single point] | –
10 | O=C(Nc1ccc(-c2cc3ccccc3oc2=O)c(Cl)c1)c1cccnc1 | inconclusive [inhibitor, single point] | –
11 | COc1ccccc1/C=C(/C(=O)OCC(=O)NCc1ccccc1)c1ccccc1 | inconclusive [inhibitor, single point] | –
12 | O=C(c1ccccc1)N1CCN(CC(O)Cn2ccc3ccccc32)CC1 (stereo not drawn) | – | inactive: 8%
13 | CCc1c(C)c(C#N)c2nc3ccccc3n2c1Cl | inconclusive [inhibitor, single point] | –
14 | S=C(Nc1ccccc1)Nc1nccs1 | inconclusive [activator, full curve] | –
15 | Cc1cc(C)c(S(=O)(=O)c2ccccc2C)c(SCC(C)C)n1 | inconclusive [inhibitor, single point] | –
16 | C=C(C)CNC(=S)N/N=C1\CCCCc2ccccc21 | inconclusive [inhibitor, single point] | –
17 | CCOC(=O)c1sc(C)c2c1NC(c1ccc(N(C)C)cc1)NC2=O (stereo not drawn) | inconclusive [inhibitor, single point] | –
18 | Cc1cc(C(=O)N2CCN(S(C)(=O)=O)CC2)sc1-c1ccccc1 | inconclusive [inhibitor, single point] | –

Reference: PubChem BioAssay AID1461 (National Center for Advancing Translational Sciences (NCATS), 2008)
